Holding throughout (assay): Viability of human cancer cell lines after 72 h of drug (GDSC screen)
Compound in experiment [1]: NC(=O)c1cccc(-c2cc(Nc3ccc(OC(F)(F)F)cc3)ncn2)c1 [GNF-2]
The following applies: top dose 1.28 µM; top dose inferred. The protocol:
(§1)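 Human cancer cell lines in 384-well plates, medium with 10% serum, drug for 72 h over a 256-fold dose range (nine 2-fold or five 4-fold steps up to the top dose). Adherent lines were fixed and stained with the nucleic acid dye Syto60, suspension lines read with resazurin; signal relative to control wells, capped at 0 and 100%. One two-parameter sigmoid per drug and line, fitted in a mixed model over all curves with the slope shared within a line.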

Compound in experiment [2]: O=S(=O)(c1ccccc1)N(CC(F)(F)F)c1ccc(C(O)(C(F)(F)F)C(F)(F)F)cc1 [T0901317]
The following applies: top dose 10.24 µM; top dose inferred. As to the method: as §1

Compound in experiment [3]: Cc1ccc(Nc2cc(-c3cccc(N4C(=O)c5ccccc5C4=O)c3)ncn2)cc1NS(C)(=O)=O [KIN001-270]
Particulars: top dose 20 µM; top dose inferred. The protocol:
as §1

Compound in experiment [4]: CC(O)(CS(=O)(=O)c1ccc(F)cc1)C(=O)Nc1ccc(C#N)c(C(F)(F)F)c1 [Bicalutamide]
Particulars: top dose inferred. The protocol:
as §1

Compound in experiment [5]: Nc1ccn([C@@H]2O[C@H](CO)[C@@H](O)C2(F)F)c(=O)n1 [Gemcitabine]
Particulars: top dose 1.024 µM. As to the method: as §1

Compound in experiment [6]: Cc1cn(-c2cc(NC(=O)c3ccc(C)c(Nc4nccc(-c5cccnc5)n4)c3)cc(C(F)(F)F)c2)cn1 [Nilotinib]
The following applies: top dose 2 µM. The protocol:
as §1

Compound in experiment [7]: S=C(NCc1ccc2c(c1)OCO2)N1CCN(c2ncnc3c2oc2ccccc23)CC1 [MP470]
Particulars: top dose 20 µM; top dose inferred. The protocol: as §1

Compound in experiment [8]: CCNC(=O)c1noc(-c2cc(C(C)C)c(O)cc2O)c1-c1ccc(CN2CCOCC2)cc1 [AUY922]
Particulars: top dose 0.256 µM; top dose inferred. As to the method:
as §1

Compound in experiment [9]: C/C(O)=C(\C#N)C(=O)Nc1cc(Br)ccc1Br [LFM-A13]
The following applies: top dose 16 µM; top dose inferred. As to the method:
as §1

Compound in experiment [10]: CC(C)c1ccccc1Cc1cc(C(=O)Nc2ccc(S(=O)(=O)c3ccccc3C(C)(C)C)cc2)c(O)c(O)c1O [TW-37]
The following applies: top dose 5 µM. As to the method: as §1

The mark [11] stands for this setting: top dose 1.024 µM, screen: GDSC drug entry 150.
The mark [12] stands for this setting: top dose 10 µM, screen: GDSC drug entry 1502.

By IC50 is meant the dose at which the fit gives 50% viability; a fit beyond the top or the lowest dose is shown as a bound at that dose. The AUC spans the tested range (256-fold, ending at the top dose) of the same fit; the more sensitive the line, the further below 1. For part of these data: Any top dose called inferred comes from the curve model; the source does not state it. For part of these data: Drugs with an entry number were screened twice under separate entries, and the two screens often disagree.

A word on the IC50: it is the concentration at which inhibition is half-maximal. Consider RL (B-cell lymphoma, suspension), for which the AUC in experiment [1] was found to be 0.979; in experiment [2], 0.979; in experiment [3], 0.99; in [4] (setting [11]) it was 0.99; in experiment [4] (setting [12]), 0.937; in experiment [5], 0.99. The AUC in [6] came out at 0.99; in [7], 0.876; in experiment [8] it was 0.855; in experiment [9], 0.989; in experiment [10] it was 0.42. The IC50 in experiment [1] was above 1280 nM; in experiment [2] it was above 10200 nM; in [3] it was above 20000 nM; in [4] (setting [11]) it was above 1020 nM; in experiment [4] (setting [12]) it was above 10000 nM; in [5] it was above 1020 nM. Further, the IC50 in experiment [6] is above 2000 nM; in experiment [7], 17100 nM; in experiment [8], 179 nM; in experiment [9] it was above 16000 nM; in experiment [10] it was 192 nM.
Take “CESS (acute myeloid leukaemia, suspension)”: the AUC in experiment [1] worked out at 0.991; in experiment [2], 0.92; in experiment [3] it was 0.987; in [4] (setting [11]), 0.989; in [4] (setting [12]) it was 0.988; in experiment [5] it was 0.323. The AUC was 0.991 in [6]; 0.899 in experiment [7]; 0.552 in experiment [8]; 0.965 in experiment [9]; 0.562 in experiment [10]. Moreover, the IC50 is above 1280 nM in [1]; above 10200 nM in [2]; above 20000 nM in [3]; above 1020 nM in experiment [4] (setting [11]); above 10000 nM in [4] (setting [12]); 22.3 nM in experiment [5]. The IC50 in experiment [6] was above 2000 nM; in experiment [7], 19000 nM; in experiment [8], 21.7 nM; in experiment [9], above 16000 nM; in experiment [10] it was 449 nM.
Take “NCI-H226 (lung squamous cell carcinoma, adherent)”: the AUC stood at 0.987 in [1]; 0.956 in experiment [2]; 0.98 in [3]; 0.987 in experiment [4] (setting [11]); 0.986 in experiment [4] (setting [12]); 0.746 in experiment [5]. In addition, the AUC in [6] was found to be 0.981; in [7], 0.858; in experiment [8], 0.616; in [9], 0.979; in experiment [10] it was 0.792. The IC50 in experiment [1] is above 1280 nM; in experiment [2], above 10200 nM; in experiment [3], above 20000 nM; in experiment [4] (setting [11]), above 1020 nM; in [4] (setting [12]), above 10000 nM; in experiment [5], 338 nM. In addition, the IC50 was above 2000 nM in experiment [6]; 17800 nM in [7]; 33.9 nM in experiment [8]; above 16000 nM in experiment [9]; 2390 nM in [10].
“NB-4 (acute myeloid leukaemia, suspension)”: the AUC in experiment [1] came out at 0.991; in experiment [2] it was 0.93; in [3] it was 0.973; in [4] (setting [11]), 0.991; in experiment [4] (setting [12]), 0.991; in experiment [5], 0.068. The AUC in [6] was found to be 0.96; in experiment [7], 0.966; in experiment [8], 0.491; in experiment [9], 0.975; in experiment [10], 0.562. Also, the IC50 was above 1280 nM in [1]; above 10200 nM in experiment [2]; above 20000 nM in experiment [3]; above 1020 nM in experiment [4] (setting [11]); above 10000 nM in experiment [4] (setting [12]); below 4 nM in [5]. Besides, the IC50 in [6] is above 2000 nM; in experiment [7], above 20000 nM; in experiment [8] it was 15.2 nM; in experiment [9] it was above 16000 nM; in experiment [10], 445 nM.
Turning to L-540 (Hodgkin lymphoma, suspension), the AUC in experiment [1] was found to be 0.99; in experiment [2], 0.957; in experiment [3] it was 0.979; in experiment [4] (setting [11]) it was 0.987; in [4] (setting [12]), 0.97; in [5], 0.164. The AUC in experiment [6] worked out at 0.972; in experiment [7], 0.99; in [8] it was 0.866; in [9], 0.984; in experiment [10] it was 0.421. The IC50 in [1] is above 1280 nM; in experiment [2] it was above 10200 nM; in experiment [3], above 20000 nM; in [4] (setting [11]), above 1020 nM; in [4] (setting [12]) it was above 10000 nM; in experiment [5], 7.12 nM. Further, the IC50 is above 2000 nM in experiment [6]; above 20000 nM in experiment [7]; 187 nM in experiment [8]; above 16000 nM in experiment [9]; 194 nM in experiment [10].
With NB13 (neuroblastoma, adherent), the AUC in [1] came to 0.989; in experiment [2], 0.983; in experiment [3], 0.87; in [4] (setting [11]), 0.984; in [4] (setting [12]), 0.99; in experiment [5] it was 0.441. Moreover, the AUC in experiment [6] was 0.99; in experiment [7], 0.948; in experiment [8], 0.53; in experiment [9] it was 0.98; in experiment [10], 0.38. For the same cell line, the IC50 is above 1280 nM in [1]; above 10200 nM in experiment [2]; 15000 nM in [3]; above 1020 nM in [4] (setting [11]); above 10000 nM in [4] (setting [12]); 44.9 nM in experiment [5]. Further, the IC50 in [6] is above 2000 nM; in [7] it was above 20000 nM; in [8] it was 19.1 nM; in [9], above 16000 nM; in experiment [10], 152 nM.

Source of the values: the supplement of paper PMC4967469.
